Data: ChEMBL document CHEMBL4888484, “Replenishing the malaria drug discovery pipeline: Screening and hit evaluation of the MMV Hit Generation Library 1 (HGL1) against asexual blood stage Plasmodium falciparum ,using a nano luciferase reporter read-out” (2022)
About 540 (0.36%) of roughly 150,000 compounds showed an effect of 50% or more. This is one part of the list.

What follows are compounds tested on Plasmodium falciparum (assay: Primary screen in NF54 nanoGlo assay, in single point, at 2uM, 72h; a lower Z score goes with more inhibition). Settings: timepoint 72 hour.
Assay type: functional, Erythrocyte
For Cc1ccc(CNC(=O)C2(C#N)CCCC2)c(N(C)C)c1, the “% Inhibition” value was 7% and the Z score was -0.74. In the case of Cc1ccc(N(C)c2nc(-c3ccc(F)cc3)ncc2C(=O)N2CCCCC2)cc1, the “% Inhibition” value is reported as 8% and the Z score is reported as -1. In the case of Cn1c(CO)nnc1[C@H]1C[C@@H](NC(=O)c2nc3ccc(Cl)cn3c2F)C1, the “% Inhibition” value is reported as -18% and the Z score is reported as 2.8. COc1ccccc1-n1nc(CN(C(=O)C2CCC2)C2CC2)c2c1CCN(Cc1ccccc1F)C2 was tested, and the “% Inhibition” value was 10% and the Z score was -1.3. For CCCCOc1cn(C(C)(C)C)nc1C(C)=O, the “% Inhibition” value was -14% and the Z score was 1.76. With O=C(c1cn(CCCc2ccccc2)nn1)N1CCc2c(Cl)cccc2C1 the “% Inhibition” value was -13% and the Z score was 1.91. For COc1cccc2c(=O)n([C@H]3CN(C(C)C)C[C@@H]3OC)cnc12, the “% Inhibition” value was -20% and the Z score was 1.78. For CC1(C)[C@H](Cc2cc(CO)on2)C[C@@H]1NCc1ccccc1, the “% Inhibition” value was -7% and the Z score was 1.02. With CC[C@@H](C(C)C)S(=O)(=O)NC(=O)C1CCC(F)(F)CC1 the “% Inhibition” value was -12% and the Z score was 1.61. With COc1ccc(-c2noc([C@H](C)O)c2C(=O)NC2CCCCC2)cc1OC the “% Inhibition” value was -9% and the Z score was 1.11. In the case of Nc1ccccc1S(=O)(=O)N1CCC(N2CCc3ccccc3C2)CC1, the “% Inhibition” value is reported as -7% and the Z score is reported as 0.7. For CN1CC[C@](C)(CNS(=O)(=O)CC2CCCC2)C1, the “% Inhibition” value was -1% and the Z score was 0.15. With Cn1ccnc1C1CNCCN1CC(O)COCc1ccccc1 (stereo not given) the “% Inhibition” value was -4% and the Z score was 0.48. With COCCN(CC1CN(CC(O)COC)CCO1)C(=O)c1ccccc1 (stereo not given) the “% Inhibition” value was -2% and the Z score was 0.31. Cn1cc(S(=O)(=O)Nc2cccc3c2OC(C)(C)CC3)cn1 was tested, and the “% Inhibition” value was -13% and the Z score was 1.73. With CC(C)c1nnsc1C(=O)N1CCC[C@H]1c1ccc(CN(C)C)cc1 the “% Inhibition” value was -4% and the Z score was 0.7. For CCC[C@H](NC(=O)c1ccc2c(c1)NC(=O)CCN2C)c1nnn[nH]1, the “% Inhibition” value was -4% and the Z score was 0.81. With CCCc1nnsc1C(=O)Nc1cc2nc(-c3ccccc3)oc2nc1C the “% Inhibition” value was -14% and the Z score was 1.75. CC(C)Cn1ncc(NC(=O)N2CCC(=O)[C@@H](C)C2)c1C1CC1 was tested, and the “% Inhibition” value was -1% and the Z score was 0.13. In the case of CCOc1ccccc1N1CCN(c2ncnc3[nH]ccc23)CC1, the “% Inhibition” value is reported as 12% and the Z score is reported as -1.47. With CC(C)[C@H]1CCO[C@H]1C(=O)Nc1cc(C2CCCC2)nn1C the “% Inhibition” value was 1% and the Z score was -0.18. Cn1c(CN2CC[C@H](C(N)=O)C2)cc2ccccc21 was tested, and the “% Inhibition” value was -5% and the Z score was 0.48. In the case of Cc1nn(C)c(C)c1-c1cc(C(=O)NCCc2c[nH]cn2)n(C)n1, the “% Inhibition” value is reported as -3% and the Z score is reported as 0.65. With Cc1ccc(Cn2c(=O)c(C(=O)NC[C@H]3CCCO3)nn(-c3ccc(F)cc3)c2=O)cc1 the “% Inhibition” value was -11% and the Z score was 1.92. CCC1CC(C(=O)N2CCC(C)(C(N)=O)C2)CC(=O)N1 (stereo not given) was tested, and the “% Inhibition” value was -5% and the Z score was 0.61. O=C(c1ccncc1Cl)N(c1ccc(F)cn1)C1CCOCC1 was tested, and the “% Inhibition” value was -12% and the Z score was 1.56. In the case of Nc1nccnc1C(=O)NC1CCCC1, the “% Inhibition” value is reported as -16% and the Z score is reported as 2.23. Cn1ccnc1-c1c(-c2ccccc2)ncn1CC(=O)N1CCNCC1 was tested, and the “% Inhibition” value was -9% and the Z score was 1.78. C#CCNC(=O)N1CCC(C2(C)OCCO2)CC1 was tested, and the “% Inhibition” value was -9% and the Z score was 1.58. For CCCS(=O)(=O)NC1CCN(Cc2ncc(-c3ccccc3)s2)CC1, the “% Inhibition” value was -5% and the Z score was 0.61. C[C@@H]1CNCCN1S(=O)(=O)c1ccccc1 was tested, and the “% Inhibition” value was -7% and the Z score was 0.97. For COc1ccc(OC)c([C@H](C)NC(=O)c2ccc(CN3CCOCC3)cc2)c1, the “% Inhibition” value was -9% and the Z score was 1.7. CCCS(=O)(=O)N[C@@H](C)c1nc(C)c[nH]1 was tested, and the “% Inhibition” value was 11% and the Z score was -1.47. For O=C(NCc1ccccc1)c1[nH]cnc1C(=O)N1CCCCC1, the “% Inhibition” value was 11% and the Z score was -1.23. In the case of CCn1ccc(C(=O)N2CC[C@H]3C(=O)N(Cc4cccc(C)c4)CC(=O)N3CC2)n1, the “% Inhibition” value is reported as -10% and the Z score is reported as 1.36. In the case of C[C@@H](CCNc1ccc(C#N)nn1)NC(=O)OC(C)(C)C, the “% Inhibition” value is reported as -7% and the Z score is reported as 1.31. For CC(C)(c1nc(C2(c3ccncc3)CCC2)no1)S(=O)(=O)C1CC1, the “% Inhibition” value was -4% and the Z score was 0.5. Cn1nccc1-c1cccc(-c2nc(N3CCCCC3)n(C)n2)c1 was tested, and the “% Inhibition” value was -4% and the Z score was 0.64. With COc1ncccc1C(=O)NCc1cccnc1-n1cnc2ccccc21 the “% Inhibition” value was 1% and the Z score was -0.24. CC(C)n1ccnc1CNC(=O)Cc1cccnc1 was tested, and the “% Inhibition” value was 0% and the Z score was 0.07. With Cc1ccc(-c2ocnc2C(=O)Nc2nc3ccccc3s2)o1 the “% Inhibition” value was -21% and the Z score was 2.05. In the case of CCc1nc(C)c(-c2nc3ccc(C(=O)O)cc3[nH]2)[nH]1, the “% Inhibition” value is reported as -6% and the Z score is reported as 0.84. For Cc1nn(C(C)(C)C)c2nc(C3CC3)cc(C(=O)N(C)Cc3cccc(C#N)c3)c12, the “% Inhibition” value was -7% and the Z score was 1.44. For Cc1cccc(-c2ncc(C(=O)N(C)Cc3ccccc3CN(C)C)c(O)n2)c1, the “% Inhibition” value was 8% and the Z score was -0.93. For Cc1cc(C)cc(OCC(=O)N(Cc2ccc(F)cc2)[C@H]2CCS(=O)(=O)C2)c1, the “% Inhibition” value was -7% and the Z score was 0.6. For CCc1nc2ccccc2n1[C@@H](CC)C(=O)NCc1c(C)n[nH]c1C, the “% Inhibition” value was 3% and the Z score was -0.5. For Cc1noc(C)c1S(=O)(=O)NC[C@@H](c1cccn1C)N(C)C, the “% Inhibition” value was -11% and the Z score was 1.62. In the case of CC(C)Cc1ccc(CN2CCCC[C@H](NS(=O)(=O)C3CC3)C2)s1, the “% Inhibition” value is reported as 3% and the Z score is reported as -0.45. In the case of CCCC(=O)N1CCC[C@H]1C(=O)N1CCC(c2nccc(C)n2)CC1, the “% Inhibition” value is reported as -10% and the Z score is reported as 1.37. In the case of CC(C)OCCS(=O)(=O)NC1CCC(C(F)(F)F)CC1 (stereo not given), the “% Inhibition” value is reported as -22% and the Z score is reported as 3.14. With O=C(C[C@@H](CN1Cc2ccccc2C1=O)c1ccc(Cl)cc1)N1CCCCCC1 the “% Inhibition” value was -16% and the Z score was 2.01. For CC(C)S(=O)(=O)NC1=NCN(CCN2CCOCC2)CN1, the “% Inhibition” value was -11% and the Z score was 1.42. With CN(C(=O)Nc1ccccc1OCCCc1ccccc1)C1CCOCC1 the “% Inhibition” value was -11% and the Z score was 2.19. COc1ccc(NC(=O)CN2CCN(C(C)=O)CC2)cc1S(=O)(=O)N1CCCCC1 was tested, and the “% Inhibition” value was 1% and the Z score was -0.21. With O=C1CC[C@@]2(CCN(C(=O)CCCc3ccccc3)C2)N1 the “% Inhibition” value was -4% and the Z score was 0.59. For CNc1ncccc1C(=O)NC(c1ccc2c(c1)CCO2)[C@H]1C[C@@H](O)C1 (stereo not given in full), the “% Inhibition” value was -16% and the Z score was 3.01. In the case of Cc1ccc(NC(=O)Cn2c(C)ncc(C(=O)NC3CCCC3)c2=O)c(C)c1, the “% Inhibition” value is reported as 9% and the Z score is reported as -1.4. O=C(Cc1c[nH]c2ccccc12)N1CCC(F)(C(=O)NCc2ccccc2)CC1 was tested, and the “% Inhibition” value was 0% and the Z score was 0. For CCCS(=O)(=O)Nc1scnc1CC, the “% Inhibition” value was -8% and the Z score was 1.22. In the case of O=C(NCCc1ccccc1)c1nc(Cn2nc(-c3ccccc3)ccc2=O)no1, the “% Inhibition” value is reported as -7% and the Z score is reported as 0.81. For CC1(C)CC(=O)c2sc3nc(-c4ccc(Cl)cc4)cn3c2C1, the “% Inhibition” value was -10% and the Z score was 1.75. In the case of O=C(CC1(C(F)(F)F)CC1)N1CC[C@H](CN2CCOC2=O)C1, the “% Inhibition” value is reported as -9% and the Z score is reported as 1.09. For O=C(c1ccoc1)N(c1ccccc1)C1CCCCC1, the “% Inhibition” value was -16% and the Z score was 1.72. For CS(=O)(=O)N1CCc2[nH]cnc2C12CCN(C(=O)CCC1CC1)CC2, the “% Inhibition” value was -4% and the Z score was 0.68. In the case of CCc1cc([C@H](C)NC(=O)c2cc(-c3ccccc3)on2)on1, the “% Inhibition” value is reported as 4% and the Z score is reported as -0.71. Cn1ccnc(NCCc2c[nH]c3ccc(Br)cc23)c1=O was tested, and the “% Inhibition” value was 0% and the Z score was 0.07. With N#Cc1nc(C2CC2)oc1N1CCN(C(=O)CN2CCCC2=O)CC1 the “% Inhibition” value was -42% and the Z score was 4.92. O=C(CCn1cc(Cl)cn1)N1CCC(CN2CCCC2=O)CC1 was tested, and the “% Inhibition” value was -11% and the Z score was 2.35. In the case of CC(C)C(NC(=O)c1ccc(Br)cc1)C(C)C, the “% Inhibition” value is reported as -4% and the Z score is reported as 0.53. Cc1ncsc1CCN(C)Cc1ccc([C@@H]2CCCCO2)s1 was tested, and the “% Inhibition” value was 6% and the Z score was -0.66. In the case of CC(C)Cn1ncnc1CN[C@@H](C)c1cc2ccccc2o1, the “% Inhibition” value is reported as -10% and the Z score is reported as 1.61. For CCN(CC)c1ncc(CN2CCC(O)(C(F)(F)F)CC2)s1, the “% Inhibition” value was -14% and the Z score was 2.56. COc1ccccc1C1(CNC(=O)c2cc(C(=O)O)co2)CCC1 was tested, and the “% Inhibition” value was 28% and the Z score was -3.14. In the case of CCOC(=O)c1cnc2c(c(C)nn2C)c1N1CCCN(c2nc(C)ns2)CC1, the “% Inhibition” value is reported as 1% and the Z score is reported as -0.09. With CC(C)OCCCNc1cc(C(F)(F)F)cnn1 the “% Inhibition” value was -1% and the Z score was 0.06. In the case of O=C(Cc1cccc2ccccc12)N1C[C@@H](CN2CCCCCC2)[C@@H](CO)C1, the “% Inhibition” value is reported as -9% and the Z score is reported as 1.32. Cn1ccnc1[C@@H](NC(=O)c1[nH]ccc1C1CC1)C(C)(C)CO was tested, and the “% Inhibition” value was -7% and the Z score was 0.88. With CC1c2ccccc2CN1C(=O)NC1CC(=O)N(C(C)(C)C)C1 (stereo not given) the “% Inhibition” value was -3% and the Z score was 0.54. CCc1nn(-c2ccc(OC)cc2)c(Oc2ccc(F)cc2F)c1CN(CCOC)C(=O)C1CCC1 was tested, and the “% Inhibition” value was 2% and the Z score was -0.26. With CCc1noc(CC)c1CNC(=O)N[C@H](c1ccccn1)C(C)C the “% Inhibition” value was -10% and the Z score was 0.98. In the case of O=C(N1CCC[C@@]2(CCNC2)C1)C1(c2ccccc2)CCCC1, the “% Inhibition” value is reported as 1% and the Z score is reported as -0.13. CCOC(=O)c1cc(-c2ccc(C(=O)N[C@H]3CCOC3)cc2)c(C)[nH]1 was tested, and the “% Inhibition” value was 6% and the Z score was -1.26. In the case of CCCn1nnnc1CN1CCOC[C@H]1c1ccc(CC)o1, the “% Inhibition” value is reported as -4% and the Z score is reported as 0.54. Cc1cc(CN2CCC(C(=O)Nc3ccccc3)CC2)nc(N(C)C)n1 was tested, and the “% Inhibition” value was 0% and the Z score was 0.05. With COc1ccc(C2N[C@H](C(=O)O)Cc3c2[nH]c2ccccc32)cc1 (stereo not given in full) the “% Inhibition” value was -14% and the Z score was 2.25.
